Reference: PubChem BioAssay AID1347073 (National Center for Advancing Translational Sciences (NCATS), 2019)
In all, about 45,000 compounds went through this assay and about 200 (0.44%) were called active. Inconclusive results (about 7%) are left out. Calls come from the whole dose curve; as a rule, active = well fitted activation curve with a large enough effect; inconclusive = small, poorly fitted or top-dose-only effect; inactive = no such curve, though single readings can be large or run the other way. The list shows a part of the results.

experiment: qHTS of TDP-43 Inhibitors: NCGC Sytravon Library Screen; conditions: yeast TDP-43 toxicity rescue, BacTiter-Glo growth, 24 h; series mostly up to 46.1 µM; growth rescue (activation): at the top concentration; note: 0% is about no effect; nearly all actives have a fitted effect of over 55% in size
Method in brief: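 TDP-43-expressing yeast, pregrown in raffinose, seeded at OD600 0.02 in galactose medium with compound for 24 hr at 30 deg C. Growth read by BacTiter-Glo luminescence, so rescue of toxicity appears as activation.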

Row | Compound | growth rescue (activation)
1 | CN(C)NC(=S)NC1(C)CCS(=O)(=O)C1 (stereo not given) | inactive: 6.36%
2 | CN(CCc1ccccn1)C(=O)c1ccc(OC(F)(F)F)cc1 | inactive: 2.37%
3 | Cc1ccc(CNC(=O)c2ccc(N3Cc4ccccc4Oc4ncccc43)s2)cc1 | inactive: 6.54%
4 | Cc1cccc(NC(=O)C2C3C=CC4(O3)C2C(=O)N(CCCN2CCCC2)C4C(=O)NC2CCCC(C)C2C)c1 (stereo not given) | inactive: 9.58%
5 | Cc1ccc(C(=O)N/C(=C\c2ccco2)C(=O)N2CCSCC2)cc1C | inactive: 24%
6 | O=C(CN1CCN(S(=O)(=O)c2ccccc2)CC1)NC1CC1 | inactive: 6.21%
7 | COC(=O)c1ccccc1NC(=O)c1cn(-c2ccc(C)c(C)c2)c(=O)c2ccccc12 | inactive: 15.9%
8 | CC(C)CC(=O)Nc1cccc(NC(=O)c2ccccc2Cl)c1 | inactive: 19.3%
9 | CN(C)C(=O)COc1ccc(C(=O)/C=C/c2cccnc2)cc1 | inactive: 6.74%
10 | CCC(Br)C(=O)Nc1ccc(OC)cc1 (stereo not given) | inactive: 30%
11 | COCCNC(=O)C1(C)Cc2c(-c3ccc(NC(C)=O)cc3)ccnc2O1 (stereo not given) | inactive: 0.43%
12 | CCCN1C(=O)c2cc(C(=O)Nc3ccccc3OC)ccc2C1Nc1ccccc1OC (stereo not given) | inactive: 5.35%
13 | Fc1ccccc1NC(=S)NNc1ncc(C(F)(F)F)cc1Cl | inactive: 18.1%
14 | COc1ccc(NC(=O)c2cccc(N3C(=O)C4C5C=CC(C5)C4C3=O)c2)cc1Cl (stereo not given) | inactive: 1.84%
15 | COc1ccccc1C1CC(=O)n2c(nc(-c3ccccc3)c2-c2ccccc2)S1 (stereo not given) | inactive: -29%
16 | CCCS(=O)(=O)NC(=O)C1(C)CCCN(C(=O)c2ccc3ccccc3n2)C1 (stereo not given) | inactive: 0.57%
17 | O=C(CCNC(=O)c1ccco1)Nc1ccc(F)c(Cl)c1 | inactive: -2.17%
18 | O=C(Nc1ccc(SC(F)F)cc1)C12CCC(CC1)C2 | inactive: 8.59%
19 | COc1cc(/C=N/n2cnnc2)ccc1OCCSc1ccc(C)cc1 | inactive: 16.4%
20 | O=C(NCCN1CCOCC1)c1ccccc1OCc1ccccc1 | inactive: -21.7%
21 | OC(c1cccc(Cl)c1)c1nc(-c2cc3ccccc3o2)cs1 (stereo not given) | inactive: -19.1%
22 | Cc1ccc(CN2CCN(Cc3ccc(OCCO)cc3)CC2CCO)o1 (stereo not given) | inactive: 11.1%
23 | CCOc1ccc(N2C(=O)CN=C2Nc2ccccc2F)cc1 | inactive: 10.7%
24 | CCN(c1cccc2ccccc12)S(=O)(=O)c1ccc(Cl)nc1 | inactive: 11.4%
25 | CCC(C)(C)NC(=O)C(c1cccc(OC)c1OC)N(Cc1ccccc1)C(=O)CCC(=O)Nc1cc(C)on1 (stereo not given) | inactive: 11.2%
26 | CC1CCN(C(=S)c2cccc([N+](=O)[O-])c2)CC1 | inactive: 17.8%
27 | CCOC(=O)c1c(NC(=O)/C=C/C(=O)O)sc(C)c1-c1ccc(C)c(C)c1 | inactive: -4.56%

Row | Compound | growth rescue (activation)
28 | CCn1c(C(=O)Nc2cc(Cl)ccc2C)cc2sc(Cl)cc21 | inactive: 0.427%
29 | Cc1nn(Cc2ccccc2)c2c1C(c1cccnc1)C(C#N)=C(N)O2 (stereo not given) | inactive: -9.04%
30 | O=C(OC1CCCCC1)c1cc2ccccc2oc1=O | inactive: -2.51%
31 | N#Cc1ccccc1Sc1ccccc1C(=O)OCC(=O)N1CCN(C(=O)c2ccco2)CC1 | inactive: -3.32%
32 | Cc1ccc(-c2nn3c(-c4ccccc4)nnc3c3ccccc23)cc1 | inactive: 0.964%
33 | O=C(COc1ccc(Br)cc1F)NC1CC1 | inactive: 32.8%
34 | CC(C)CNC(=O)c1cc(=O)[nH]c2ccc(S(=O)(=O)Nc3ccc(F)cc3)cc12 | inactive: 13.2%
35 | C=CCN(c1ccccc1)S(=O)(=O)c1cccc(C(=O)Nc2nnc(SCC)s2)c1 | inactive: 5.87%
36 | COc1ccccc1-c1cc2nc(NCCc3ccc(S(N)(=O)=O)cc3)ccn2n1 | inactive: 6.42%
37 | CNC(=S)Nc1ccc(C(N)=O)cc1 | inactive: 17.5%
38 | CCn1c(COc2ccc(C)cc2)nnc1SCC(=O)NNC(=O)c1ccc(OC)cc1 | inactive: 23.2%
39 | COc1ccc(OCC(=O)NC2CCCCCCC2)cc1 | inactive: 18%
40 | Cc1ccc(NC(=S)N2CCC(c3ccccc3)C2)c(Cl)c1 (stereo not given) | inactive: 13.4%
41 | CC(C)(C)C(=O)Nc1ccc(C(=O)N/N=C/c2ccccc2OC(=O)c2ccc(Cl)cc2)cc1 | inactive: 8.44%
42 | COC(=O)CNC(=O)c1ccc2c(c1)S(=O)(=O)c1ccccc1C2=O | inactive: 16.5%
43 | CN(C)S(=O)(=O)c1cccc(NC(=S)NC(=O)c2ccco2)c1 | inactive: 23.8%
44 | COc1cccc(C(=O)NNC(=O)C(=O)Nc2ccc(OC)cc2OC)c1 | inactive: -5.18%
45 | Cc1ccc(C)c2[nH]c(=O)c(CN(Cc3cccs3)C(=S)NCc3ccco3)cc12 | inactive: 4.99%
46 | CCOc1ccc(Br)cc1CSC(=N)N | inactive: -3.4%
47 | NS(=O)(=O)c1cccc(NC(=O)CC(NC(=O)c2ccccc2Cl)c2ccccc2)c1 (stereo not given) | inactive: 0.299%
48 | Cc1cccc2cc(CN(Cc3ccco3)C(=O)c3ccco3)c(=O)[nH]c12 | inactive: -2.35%
49 | Cc1cccc(C(=O)N[C@H](C(=O)Nc2nccs2)C(C)C)c1 | inactive: -3.53%
50 | N#CCCn1cnc2ccccc21 | inactive: -0.846%
51 | Cc1c(N2C(=O)C(=O)/C(=C(/O)c3ccc(Cl)cc3)C2c2ccccc2)c(=O)n(-c2ccccc2)n1C (stereo not given) | inactive: 8.73%
52 | CCCCC(=O)Nc1ccc(NC(=O)c2ccc([N+](=O)[O-])cc2Cl)cc1OC | inactive: 21.3%
53 | O=C(CCCn1cncn1)N1CCCC(Nc2ccc(F)cc2)C1 (stereo not given) | inactive: 17.8%
54 | CC(C)Oc1ccc(/C=C(\NC(=O)/C=C/c2ccco2)C(=O)NCCc2nc3ccccc3[nH]2)cc1 | inactive: 8.74%

Row | Compound | growth rescue (activation)
55 | CC(C)CCn1cnc2c1c(=O)n(CC(=O)NC(N)=O)c(=O)n2Cc1ccccc1 | inactive: 15.5%
56 | CCN(CC)S(=O)(=O)c1ccc(C)c(NC(=O)Cn2c(=O)cnc3ccccc32)c1 | inactive: 0.178%
57 | COc1ccc(Cl)cc1N/C(N)=N/c1nc(C)cc(=O)[nH]1 | inactive: 2.26%
58 | CCCNC(=O)C1(C)CCCN(C(=O)c2cc(C(C)(C)C)nn2C)C1 (stereo not given) | inactive: -0.219%
59 | Cc1nn(-c2ccccc2)c(N2CCCC2)c1/C=N/NC(=O)c1cc(-c2cccs2)nc2ccccc12 | inactive: 1.79%
60 | CCN(CC)S(=O)(=O)c1cc(NC(=O)CCNC(=O)c2ccco2)ccc1C | inactive: -0.456%
61 | O=C(NCCNC(=O)c1ccccn1)c1cccc(F)c1 | inactive: -22.2%
62 | CCOC(=O)CNS(=O)(=O)c1cc(-c2n[nH]c(=O)c3ccccc23)ccc1C | inactive: 26.8%
63 | CC(=O)N(c1ccc2oc(=O)sc2c1)S(=O)(=O)c1ccc(C(=O)O)cc1 | inactive: 8.78%
64 | COc1ccc(/C=C(\C#N)C(=O)Nc2cc(S(=O)(=O)N3CCOCC3)ccc2N2CCCC2)cc1 | inactive: 17.9%
65 | COc1cccc(CC(NC(C)=O)C(=O)NC2CCN(C(=O)C3CC3)CC2)c1OC (stereo not given) | inactive: 11.4%
66 | Cn1nc(-c2ccccc2)c(C(=O)NC(C(=O)O)c2ccccc2)c1Cl (stereo not given) | inactive: -2.64%
67 | Cc1ccc([N+](=O)[O-])cc1NC(=O)C(Sc1ccccc1)c1ccccc1 (stereo not given) | inactive: 9.6%
68 | CC(C)[C@H](NC(N)=O)C(=O)Nc1cccc(S(=O)(=O)N2CCOCC2)c1 | inactive: 9.73%
69 | CC1CCCC(C)N1/N=C/c1ccc(C#N)cc1 (stereo not given) | inactive: 6.73%
70 | COc1ccc2cc(-c3[nH]ncc3CN3C[C@@H]4CCC[C@H]3C4)ccc2c1 | inactive: 3.26%
71 | O=C(/C=C/c1ccccc1)CC(=O)c1ccccc1O | inactive: 11.9%
72 | C=CCC(=O)N1CCCC(CNC(=O)c2ccc(-c3ccccc3)cc2)C1 (stereo not given) | inactive: 15.3%
73 | CC1=CC(C)(C)N(C(=O)CCl)c2cc(C)ccc21 | inactive: 2.68%
74 | Cc1ccc(NC(=O)CCC(=O)c2cccs2)cc1F | inactive: 6.85%
75 | COc1ccc([N+](=O)[O-])cc1NC(=O)CCN1CCOCC1 | inactive: 2.21%
76 | CCN1C(=O)C2(/C(=C(\O)c3ccc4c(c3)OCCO4)C(=O)C(=O)N2CCCOC)c2ccccc21 (stereo not given) | inactive: -11.1%
77 | O=C(O)CSc1nnc(-c2ccc(Cl)cc2Cl)n1-c1ccc(Cl)cc1 | inactive: 18.6%
78 | COc1ccc(OCC(=O)Nc2ccc(S(=O)(=O)N3CCCCC3)cc2)cc1 | inactive: 9.07%
79 | CCn1c(=O)c([N+](=O)[O-])c(NC2CCS(=O)(=O)C2)c2ccccc21 (stereo not given) | inactive: -9.37%
80 | COc1ccc(Cl)cc1NC(=O)COC(=O)Cc1cc(OC)c(OC)c(OC)c1 | inactive: -5.4%
81 | CCSc1ncc(Cl)c(C(=O)Nc2ccc(S(N)(=O)=O)cc2)n1 | inactive: 5.43%

Row | Compound | growth rescue (activation)
82 | COc1ccccc1CNC(=O)COC(=O)Cc1ccc(Br)cc1 | inactive: -12.7%
83 | CC(c1ccccc1)n1c(SCC(=O)N2CC(=O)Nc3ccccc32)nc2ccccc2c1=O (stereo not given) | inactive: 17.9%
84 | COc1ccc(-c2[nH]ncc2CN(C)C(C)c2ccon2)cc1F (stereo not given) | inactive: 6.74%
85 | CN(C(=O)c1ccc2c(c1)SC1=NS(=O)(=O)CCN12)C(c1ccccc1)c1ccccc1 | inactive: 21.4%
86 | COc1cc2c(cc1OC)CN(CC(=O)Nc1ccccc1C(=O)NCc1ccccc1)CC2 | inactive: -1.33%
87 | O=S(=O)(NCCc1nnc2ccc(SCc3cccnc3)nn12)c1ccccc1 | inactive: -1.81%
88 | Nc1ccccc1-c1nnc2n1CCCCC2 | inactive: -1.44%
89 | O=C(COC(=O)c1ccc(F)cc1Cl)NC1CCCCCCC1 | inactive: -11.7%
90 | O=S(=O)([O-])CCC[N+]1(CC#Cc2ccccc2)CCCCC1 | inactive: -3.46%
91 | O=C(NC(=S)NN1CCCCC1c1cccnc1)c1ccc(Cl)cc1Cl (stereo not given) | inactive: 14.7%
92 | CCN(CC)S(=O)(=O)c1ccc(C(C)NC(=O)Cc2c[nH]c3ccccc23)cc1 (stereo not given) | inactive: 23.9%
93 | Cc1nc(-c2ccc3c(c2)OCCO3)cs1 | inactive: 19.7%
94 | O=C1CSC(c2ccc([N+](=O)[O-])cc2)N1C1CCCCC1 (stereo not given) | inactive: 9.47%
95 | COc1ccc(C(=O)/C=C/Nc2ccc(S(=O)(=O)Nc3onc(C)c3C)cc2)cc1 | inactive: 5.86%
96 | COC(=O)C(Cc1c[nH]c2ccccc12)NC(=O)c1ccc2nc[nH]c2c1 (stereo not given) | inactive: 30.3%
97 | COc1cc(C(c2oc(CO)cc(=O)c2O)c2oc(CO)cc(=O)c2O)cc(OC)c1OC | inactive: 2.13%
98 | CCc1nc2c(OCC3CCCCC3)cccn2c1N(C)C(=O)c1ccc(C)cc1 | inactive: 0.0066%
99 | C/C(CCc1ccco1)=N\NC(=O)CNc1c(Br)cc(Br)cc1Br | inactive: 9.86%
100 | CCCCC(=O)Nc1ccc(NC(=S)NC(=O)c2ccco2)cc1OC | inactive: 21.8%
101 | Cc1nn(C(C)C(=O)O)c(=O)c2ccccc12 (stereo not given) | inactive: -0.853%
102 | CCc1cc(C(=O)N/N=C/c2ccc(OC)cc2)c2ccccc2n1 | inactive: -6.47%
103 | CCN(C(=O)COC(=O)c1cc(C)n(-c2ccc(F)cc2)c1C)C1CCS(=O)(=O)C1 (stereo not given) | inactive: 2.9%
104 | COc1ccc(O)c(/C=N/NC(=O)c2ccc(N3CCCC3=O)cc2)c1 | inactive: -16.7%
105 | O=C(O)CN(C1CCCCC1)S(=O)(=O)c1ccc(F)cc1 | inactive: -7.01%
